# Laboratory results from PubChem BioAssay AID1461 (National Center for Advancing Translational Sciences (NCATS), 2008).
# Hit rate of the full screen: of about 220,000 compounds, about 2,300 (1%) were called active. The inconclusive results got no clear call from the source; some entries with a clear call stand among them for comparison. The call rests on the fitted dose curve; in most records, active means well fitted inhibition curve with a large enough effect; inconclusive means small, poorly fitted or top-dose-only effect, or effect the other way; inactive means no such curve, though single readings can be large or run the other way. Potencies of inconclusive entries are left out as doubtful fits.
# Molecular target: Neuropeptide S receptor (Homo sapiens) (UniProt Q6W5P4)
# UniProt Q6W5P4, sequence (Q6W5P4 whole entry, looked up): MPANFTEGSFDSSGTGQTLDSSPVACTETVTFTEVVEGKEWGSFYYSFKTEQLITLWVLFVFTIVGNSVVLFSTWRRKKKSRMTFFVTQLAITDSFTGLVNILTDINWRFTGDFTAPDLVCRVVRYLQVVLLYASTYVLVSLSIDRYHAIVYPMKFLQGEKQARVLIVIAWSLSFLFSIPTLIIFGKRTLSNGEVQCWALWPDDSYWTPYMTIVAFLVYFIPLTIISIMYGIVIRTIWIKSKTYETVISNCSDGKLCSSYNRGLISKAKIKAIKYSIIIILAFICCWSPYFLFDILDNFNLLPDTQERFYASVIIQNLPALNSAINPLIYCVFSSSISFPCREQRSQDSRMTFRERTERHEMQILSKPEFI
# Assay: qHTS Assay for Antagonists of the Neuropeptide S Receptor: cAMP Signal Transduction; further: nearly all actives have a fitted effect of over 50% in size
# Conditions: CHO-NPSR cells, cAMP TR-FRET, antagonist mode; series mostly up to 38.3 µM
# Potency means the concentration at half of the fitted maximal effect; tags describe the fitted curve by direction and shape.
row,SMILES,Potency
1,N#CCCCSC1=C(C#N)C(c2ccccc2Cl)CC(=O)N1 (centres undefined),"inconclusive [inhibitor, single point]"
2,O=C(Cc1ccccc1)N1CCCC(c2nc(-c3ccc(S(=O)(=O)N4CCCC4)cc3)no2)C1 (centres undefined),"inconclusive [inhibitor, single point]"
3,CC(C)N(C(=O)CSc1nc2ccccc2c(=O)[nH]1)C(C)C,inactive
4,CCc1ccc2oc(-c3ccc(OC)cc3)cc(=Nc3c(C)n(C)n(-c4ccccc4)c3=O)c2c1,"inconclusive [inhibitor, single point]"
5,COc1cc(C2C3=C(Nc4ncnn42)c2ccccc2CC3)cc(OC)c1OC (centres undefined),"inconclusive [activator, full curve]"
6,C=CCn1c(COc2ccccc2)nnc1SC(C)C(=O)N/N=C/c1cc(Cl)ccc1O (centres undefined),inactive
7,COc1ccc(Oc2nccc(-c3ccc(F)cc3)c2C#N)cc1,"inconclusive [activator, single point]"
8,Cc1cccc(-c2nnc3n2N=C(c2ccccc2Br)CS3)c1,"inconclusive [inhibitor, partial curve]"
9,Cc1onc(-c2ccccc2)c1-c1nc2ccccc2c(=O)o1,"inconclusive [activator, full curve]"
10,CCOC(=O)C1=C(c2ccccc2)N=c2s/c(=C\c3cccc(O)c3)c(=O)n2C1c1cccs1 (centres undefined),"inconclusive [inhibitor, single point]"
11,Cc1ccnc(NC(c2ccccc2O)c2oc(CO)cc(=O)c2O)c1 (centres undefined),inactive
12,O=C1c2cccc3c(N4CCCCC4)ccc(c23)C(=O)N1c1ccccc1O,inactive
13,Cc1nn(-c2ccccc2)c(C)c1/C=N/Nc1nc2ccccc2[nH]1,"inconclusive [inhibitor, single point]"
14,Cc1ccc(NC(=O)C2CCCN2C(=O)Oc2ccccc2)cc1C (centres undefined),"inconclusive [activator, partial curve]"
15,CC(=O)c1cccc(CN2CCN(CC=C(C)C)C(CCO)C2)c1 (centres undefined),"inconclusive [activator, single point]"
16,CCCCSc1nc(NCc2ccco2)c2c3c(sc2n1)COC(C)(C)C3,"inconclusive [inhibitor, partial curve]"
17,CCOc1ccc2c(c1)c1nnc(SCC(=O)N3CCCCC3C)nc1n2C (centres undefined),"inconclusive [inhibitor, partial curve]"
18,N=c1c2c(-c3ccccc3)c(-c3ccccc3)n(Cc3ccco3)c2ncn1Cc1ccccc1,active: 10 µM
19,CCOc1ccc(C(CCc2ccccc2)NC(=O)c2ccccc2OC)cc1OCC (centres undefined),"inconclusive [inhibitor, partial curve, poor fit]"
20,COc1cc(C2C3CN(C)CC=C3C(C#N)=C(N)C2(C#N)C#N)ccc1OC(C)C (centres undefined),inactive
21,NC1=NC[C@@H](Cc2ccc(O)cc2)N1CCCCC1CCCCC1,active: 5.01 µM
22,COc1ccc(C2C(C#N)=C(N)Oc3c2sc2nc(C)cc(C)c32)cc1 (centres undefined),"inconclusive [inhibitor, single point]"

row,SMILES,Potency
1,Cc1cc2c(NC(=O)Nc3ccc(C(C)(C)C)cc3)cccc2nn1,"inconclusive [activator, single point]"
2,Cc1ccc(NC(=O)C(Cc2ccccc2)N2C(=O)C3C4CCC(C4)C3C2=O)cc1Cl (centres undefined),"inconclusive [inhibitor, partial curve]"
3,Cc1cn(C(=O)c2cccc(Br)c2)c(C)n1,"inconclusive [inhibitor, single point]"
4,NC(=O)N1CCN(C(=O)c2ccco2)CC1,"inconclusive [inhibitor, single point]"
5,Cc1cccc(Nc2nc(N)c([N+](=O)[O-])c(N3CC(C)CC(C)C3)n2)c1 (centres undefined),"inconclusive [inhibitor, single point]"
6,COc1ccccc1N1CCN(/N=C/c2cccc(OC)c2OC)CC1,inactive
7,Cc1nn(CC2CCCCC2)c(N)c1-c1ccccc1,"inconclusive [inhibitor, single point]"
8,O=C(Nc1ccc(S(=O)(=O)N2CCOCC2)cc1)c1cc(-c2cc(Cl)ccc2O)n[nH]1,"inconclusive [activator, partial curve]"
9,COC1(OC)C(/C=C/c2ccc(Cl)cc2)C(C#N)(C#N)C1(OC)OC (centres undefined),"inconclusive [inhibitor, partial curve]"
10,O=C(NC1CCCC1)C1CCCN1C(=O)Nc1ccc(Cl)cc1 (centres undefined),"inconclusive [activator, single point]"
11,COc1ccc(C2C(C(C)=O)=C(O)C(=O)N2c2ccc(Br)cn2)cc1 (centres undefined),"inconclusive [inhibitor, single point]"
12,CC(C)CCOC(=O)/C(=C/c1ccco1)NC(=O)/C=C/c1ccccc1,"inconclusive [inhibitor, single point]"
13,Cc1ccccc1OC(=O)n1c(=S)oc2cc(Cl)ccc21,inactive
14,CC(=O)N(Cc1ccc(F)cc1)C1=C(NCc2ccccc2)C(=O)c2ccccc2C1=O,"inconclusive [inhibitor, single point]"
15,c1ccc(Cc2nnc(Sc3ccccc3)c3ccccc23)cc1,"inconclusive [inhibitor, single point]"
16,Cc1ccc(NC(=S)Nc2cccnc2)c(S(=O)(=O)N2CCCCC2)c1,inactive
17,OCCNC1=NCCN1,inactive
18,COc1ccccc1NC(=S)NC1CCCCCCCCCCC1,"inconclusive [activator, single point]"
19,CCC(C)(C)n1nnnc1C(c1ccc2ncccc2c1)N1CCN(Cc2ccc3c(c2)OCO3)CC1 (centres undefined),active: 7.94 µM
20,Cc1ccc(-c2[nH]ncc2/C=N/n2c(COc3ccccc3)nc3ccccc3c2=O)cc1,"inconclusive [inhibitor, single point]"
21,Cc1c(NC(=O)CN2C(=O)NC(CCc3ccccc3)C2=O)c(=O)n(-c2ccccc2)n1C (centres undefined),inactive
22,O=C(O)COc1c(-c2ccco2)oc2ccccc2c1=O,inactive
